# From PubChem BioAssay AID504332 (National Center for Advancing Translational Sciences (NCATS), 2011)
# Several values for one entry are separate records, joined by “and”; a condition that tells them apart may be missing. Identical values can stand only once. About 31,000 (8.9%) of roughly 350,000 compounds were called active. This list was built around the results that the source calls inconclusive (neither active nor inactive); the mix of calls is not that of the screen. Calls come from the whole dose curve; as a rule, active = well fitted inhibition curve with a large enough effect; inconclusive = small, poorly fitted or top-dose-only effect; inactive = no such curve, though single readings can be large or run the other way. A potency beside an inconclusive call is a rough fit, not a confirmed value. A structure can be active in one record and inactive in another.
# Target: Histone-lysine N-methyltransferase EHMT2 (Homo sapiens) (UniProt Q96KQ7)
# Sequence of UniProt Q96KQ7 (Q96KQ7 whole entry, looked up): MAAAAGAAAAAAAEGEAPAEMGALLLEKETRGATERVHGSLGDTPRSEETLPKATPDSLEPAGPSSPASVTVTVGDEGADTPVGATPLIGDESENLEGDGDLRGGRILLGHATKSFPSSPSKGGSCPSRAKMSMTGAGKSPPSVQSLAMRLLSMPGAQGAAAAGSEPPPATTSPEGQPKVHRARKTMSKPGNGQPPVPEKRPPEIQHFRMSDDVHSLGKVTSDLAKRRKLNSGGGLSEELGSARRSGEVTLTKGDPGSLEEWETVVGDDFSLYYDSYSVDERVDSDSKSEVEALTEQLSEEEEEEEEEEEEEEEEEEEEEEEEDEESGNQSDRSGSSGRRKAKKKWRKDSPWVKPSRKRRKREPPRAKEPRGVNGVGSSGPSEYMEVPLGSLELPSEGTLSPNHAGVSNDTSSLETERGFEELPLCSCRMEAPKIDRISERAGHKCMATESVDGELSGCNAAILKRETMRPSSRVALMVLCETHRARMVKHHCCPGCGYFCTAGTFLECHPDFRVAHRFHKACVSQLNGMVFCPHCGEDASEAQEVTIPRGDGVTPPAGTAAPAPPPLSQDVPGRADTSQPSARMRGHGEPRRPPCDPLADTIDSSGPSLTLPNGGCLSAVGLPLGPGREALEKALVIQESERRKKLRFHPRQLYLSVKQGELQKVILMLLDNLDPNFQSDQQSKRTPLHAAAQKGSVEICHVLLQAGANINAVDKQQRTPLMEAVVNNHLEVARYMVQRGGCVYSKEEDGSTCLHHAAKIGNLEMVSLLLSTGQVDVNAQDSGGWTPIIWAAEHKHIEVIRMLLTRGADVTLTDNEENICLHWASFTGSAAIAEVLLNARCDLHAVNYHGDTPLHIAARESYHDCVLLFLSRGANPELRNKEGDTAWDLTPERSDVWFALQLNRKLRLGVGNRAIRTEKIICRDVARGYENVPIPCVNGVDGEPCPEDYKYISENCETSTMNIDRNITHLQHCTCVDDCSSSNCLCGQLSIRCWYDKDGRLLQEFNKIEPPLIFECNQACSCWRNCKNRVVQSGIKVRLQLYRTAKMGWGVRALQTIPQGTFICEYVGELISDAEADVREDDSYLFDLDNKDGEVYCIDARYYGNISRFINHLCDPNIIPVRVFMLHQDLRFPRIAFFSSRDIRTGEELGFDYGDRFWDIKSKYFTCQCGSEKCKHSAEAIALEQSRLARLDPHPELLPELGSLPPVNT
# Experiment: qHTS Assay for Inhibitors of Histone Lysine Methyltransferase G9a; note: nearly all actives have a fitted effect of over 75% in size
# Details: G9a H3K9 monomethylation, AlphaScreen, 2 h; activity, negative = inhibition: at 59 µM (top of the series) unless noted
# Method in brief: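 Quantitative HTS format: methyltransferase activity on a biotin-tagged H3K9 peptide is measured by AlphaScreen, using a rabbit anti-monomethyl-H3K9 antibody with streptavidin donor and anti-IgG acceptor beads. Final levels are 20 nM enzyme, 500 nM peptide, 20 uM SAM; 2 h RT.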
# % is set by controls: 0 for no effect and ±100 for the full control effect; potency is the fitted concentration of half-maximal effect; tags give direction and shape of the fitted curve.
Compound,Potency,"activity, negative = inhibition"
Cc1ncc(CN2CCCC(C(=O)c3ccc(C(C)(C)C)cc3)C2)s1 (centres undefined),"inconclusive: 35.5 µM [inhibitor, partial curve, poor fit]",
CN1CC=C(c2c[nH]c3ccccc23)CC1,inactive,
Cn1c(O)c(C=Nc2ccccc2-c2ccccc2)c(=O)n(C)c1=O,inactive,
O=S(=O)(c1ccc(F)cc1)N1CCCC1c1cccnc1 (centres undefined),"inconclusive: 70.8 µM [inhibitor, partial curve, poor fit]",
CC[C@@]1(O)CC(O)c2c(cc3c(c2O)C(=O)c2c(O)ccc(O)c2C3=O)C1C(=O)OC (some centres undefined),,inconclusive: -82.9% [inhibitor] [at 2.33 µM]
O=c1cccc2n1CC1CC2CN(Cc2ccc3c(c2)OCO3)C1 (centres undefined),"inconclusive: 89.1 µM [inhibitor, single point]",
C[C@@H]1O[C@@H](O[C@H]2C[C@@H](O)[C@]3(CO)[C@@H]4C(CC[C@]3(O)C2)[C@@]2(O)CC[C@H]([C@@H]3COC(=O)C3)[C@@]2(C)C[C@H]4O)[C@H](O)[C@H](O)[C@H]1O (some centres undefined),inactive,
O=C1NC(=O)C(=Cc2ccc(Oc3ccc([N+](=O)[O-])cc3)cc2)C(=O)N1,active: 35.5 µM,
O=C(CN1CCN(Cc2cccc(Cl)c2)C1=O)N1CCC2(CC1)OCCO2,"inconclusive: 89.1 µM [inhibitor, single point]",
CN1CC(C(=O)c2ccc(Cl)cc2)C(c2ccc(Cl)cc2Cl)C1 (centres undefined),"inconclusive: 70.8 µM [inhibitor, single point]",
COc1ccc(OC)c(CCNCc2c(C(=O)O)c(C)n(Cc3ccc(F)cc3Cl)c2C)c1,inactive,
OCc1cnc[nH]1,inactive and active: 11.9 µM,
COc1cc(-n2c(=S)[nH]c3ccc(C)cc3c2=O)c(Cl)cc1Cl,,inactive: 20.4% [at 12.7 µM]
NC(=O)c1sc2nc3c(c(-c4cccs4)c2c1N)CCCC3,active: 22.4 µM,
O=C(Cn1c(=O)oc2cc(S(=O)(=O)N3CCc4ccccc43)ccc21)NC1CCCC1,"inconclusive: 89.1 µM [inhibitor, single point]",
Cc1ccc2[nH]c(=S)n(-c3cccnc3)c(=O)c2c1,active: 44.7 µM,
Cc1ccc(C(O)P(=O)(OC2CCCCC2)OC2CCCCC2)cc1 (centres undefined),"inconclusive: 70.8 µM [inhibitor, single point]",
COc1cccc(-n2c(=S)[nH]c3ccccc3c2=O)c1,inactive,
CN1C2CCC1CC(OC(c1ccc(F)cc1)c1ccc(F)cc1)C2 (centres undefined),inactive,
COc1ccc(-c2cc(=NCCCCCC(=O)O)c3cc(C)ccc3o2)cc1,"inconclusive: 89.1 µM [inhibitor, single point]",
Cc1ccnc(-n2c(C)cc(/C=C3\C(=O)NC(=S)N(C)C3=O)c2C)c1,active: 6.31 µM,
COc1ccc(NC(=O)CCc2nc(C3=CCN(Cc4cccc(C)c4)CC3)no2)c(OC)c1,"inconclusive: 39.8 µM [inhibitor, partial curve, poor fit]",
CN(C)P(=O)(CCl)Nc1ccccc1 (centres undefined),"inconclusive: 3.55 µM [inhibitor, full curve, poor fit]",
COc1ccc(CCNC(=O)c2ccc3c(c2)N(Cc2cccc(Cl)c2)C(=O)CS3)cc1OC,"inconclusive: 25.1 µM [inhibitor, partial curve, poor fit]",
Oc1ccccc1/C=N/[n+]1ccccc1,active: 56.2 µM,

Compound,Potency,"activity, negative = inhibition"
CN1C[C@H](CNC(=O)OCc2ccccc2)C[C@@H]2c3cccc4c3c(cn4C)C[C@H]21,active: 23.8 µM,
CN1C(=O)N(C)C(=O)C2(Cc3ccccc3N3CCCC32)C1=O (centres undefined),,inactive: 10.9% [at 12.7 µM]
O=[N+]([O-])c1ccccc1,inactive,
COC(=O)C1=C(c2c(C)noc2C)C[C@@H]2CC[C@H]1N2C(=O)N1CCOCC1,,inconclusive: -85.9% [inhibitor] [at 2.33 µM]
CCCCn1c(N)c(C(=O)NCCN2CCOCC2)c2nc3ccccc3nc21,inactive,
N#CC(C#N)=Cc1cc(O)c(O)c(O)c1,active: 8.91 µM,
Cn1cccc1/C=C1/C(=O)NC(=O)N(Cc2ccc(F)cc2)C1=O,active: 39.8 µM,
Cc1ccc2cc(C=C(C#N)C#N)c(Cl)nc2c1,"inconclusive: 20 µM [inhibitor, single point]",
CNC(C(=O)c1ccccc1)C(OC)c1cccc([N+](=O)[O-])c1 (centres undefined),active: 56.2 µM,
CCCCCn1c(NC(=O)c2ccco2)c(C(=O)OCC)c2nc3ccccc3nc21,active: 50.1 µM,
O=C1C2CC=CCC2C(=O)N1SC(Cl)(Cl)Cl (centres undefined),active: 1.58 µM,
O=C1NC(=O)N(c2ccc3c(c2)OCO3)C(=O)/C1=C/c1ccsc1,"inconclusive: 35.5 µM [inhibitor, partial curve, poor fit]",
COc1ccccc1CCNC1CCC(C)CC1 (centres undefined),"inconclusive: 3.16 µM [inhibitor, single point]",
Cc1ccc(P(=S)(c2ccc(C)o2)N2CCOCC2)o1,,inactive: -35.9% [at 12.7 µM]
O=[N+]([O-])c1cccc(CN2CCN(Cc3ccc(Cl)cc3)CC2)c1,active: 3.55 µM,
O=C(NCNC(=O)N[C@H]1C(=O)NC(=O)N1CO)N[C@H]1C(=O)NC(=O)N1CO,inactive,
O=C(NC(=S)N1C[C@H]2C[C@H](C1)c1cccc(=O)n1C2)c1ccc(F)cc1,active: 35.5 µM,
COc1cc(CN2CCN(C(=O)Cc3ccccc3)CC2)cc(OC)c1OC,active: 25.1 µM,
Cn1c(O)c(C(=Nc2ccccc2)SCc2ccc(Cl)cc2)c(=O)n(C)c1=O,"inconclusive: 6.31 µM [inhibitor, single point]",
CCc1nc2ccccc2c(=O)n1-c1ccc2ccccc2c1,inactive,
CC1=CC(=O)NP(=O)(Oc2ccc3ccccc3c2)N1 (centres undefined),active: 3.55 µM,
O=C(CN1CCOCC1)c1ccc(Br)cc1,,inconclusive: -56.6% [inhibitor] [at 2.33 µM]
Cc1nn(CCc2n[nH]c(=S)n2-c2cccc(Cl)c2)c(C)c1[N+](=O)[O-],active: 1.12 µM,
Cn1cccc1/C=C1\C(=O)NC(=O)N(Cc2ccccc2)C1=O,,inconclusive: -90.8% [inhibitor]
COc1cc(OC)c(OC)cc1CN1CCc2nc(N3CCN(c4ccccc4F)CC3)ncc2C1,"inconclusive: 20 µM [inhibitor, partial curve, poor fit]",

Compound,Potency,"activity, negative = inhibition"
O=[N+]([O-])c1ccc(F)c([N+](=O)[O-])c1,"inconclusive: 2.51 µM [inhibitor, partial curve, poor fit]",
CCC(=O)CC(c1ccc([N+](=O)[O-])cc1)c1c(O)c2ccccc2oc1=O (centres undefined),inactive,
O=[N+]([O-])c1ccc(N2CCCCCC2)c2ncccc12,active: 25.1 µM,
O=c1n(Cl)c(=O)n(Cl)c(=O)n1Cl,active: 12.6 µM,
C[C@@H]1O[C@H](C[N+](C)(C)C)C[C@H]1O,active: 15.8 µM,inactive: 21.6% [at 12.7 µM]
COc1ccc(NP(=O)(Oc2ccc(Cl)cc2)Oc2ccc(Cl)cc2)cc1OC,"inconclusive: 39.8 µM [inhibitor, single point]",
Cc1ccsc1/C=C1\C(=O)NC(=S)N(C)C1=O,active: 7.94 µM,
Cc1cccc(N2C(=O)NC(=O)/C(=C\c3ccc(N4CCOCC4)cc3)C2=O)c1,"inconclusive: 25.1 µM [inhibitor, partial curve, poor fit]",
COc1ccc2c(c1)CC1(CN2C)C(=O)NC(=O)N(c2ccc(C)cc2)C1=O (centres undefined),"inconclusive: 2.24 µM [inhibitor, partial curve, poor fit]",
N[C@@H](Cc1cc(I)c(O)c(I)c1)C(=O)O,active: 6.31 µM,
CCc1ccc(CNCCc2c[nH]c3ccccc23)cc1,"inconclusive: 35.5 µM [inhibitor, single point]",
COc1ccc(OC)c(CN2CCN(C(=O)COc3cccc(C)c3)CC2)c1,active: 7.08 µM,
CCOC(=O)c1c(C)n(Cc2ccc3c(c2)OCO3)c2ccc(O)cc12,"inconclusive: 3.55 µM [inhibitor, single point]",
COc1ccc(C2C(C(=O)N3CCC4(CC3)OCCO4)CC(=O)N2c2ccc(OC)cc2)cc1 (centres undefined),"inconclusive: 56.2 µM [inhibitor, partial curve, poor fit]",
CCOP(=O)(/C=C(\Cl)c1ccccc1)C(O)c1ccc(F)cc1 (centres undefined),,inactive: 24.1% [at 2.33 µM]
CN=C(SCc1cc2c(cc1Cl)OCO2)c1c(O)n(C)c(=O)n(C)c1=O,"inconclusive: 79.4 µM [inhibitor, single point]",
CCN1C[C@@]2(C)CC[C@@H](OC)[C@@]34C2C(O)[C@@]2(OCO[C@]25CC(OC)C2C[C@@]3(O)C5C2O)C14 (some centres undefined),,inactive: -0.94% [at 2.33 µM]
Cc1oc(-c2cccc(Cl)c2)nc1CN1CCC(C(=O)NCCCN2CCN(c3cccc(Cl)c3)CC2)CC1,"inconclusive: 28.2 µM [inhibitor, partial curve, poor fit]",
Cc1c(N=Cc2c(O)n(C3CCCCC3)c(=O)[nH]c2=O)c(=O)n(-c2ccccc2)n1C,"inconclusive: 89.1 µM [inhibitor, single point]",
CCCCC/C=C\C/C=C\C/C=C\C/C=C\CCCC(=O)N[C@H](C)CO,inactive,
Cc1ccc2cc3c(ccc4ccccc43)c3c2c1CC3,"inconclusive: 15.8 µM [inhibitor, single point]",
CC1=C(C(=O)O)N2C(=O)C(NC(=O)Cc3ccccc3)C2SC1 (centres undefined),active: 10 µM,
CN1C(=O)NC(=O)/C(=C\c2ccc([N+](=O)[O-])o2)C1=O,active: 12.6 µM,
